For 56 variants, self-cleavage results are on record in the RNAGym collection of RNA variant scans (doi:10.7554/elife.90254).

The source gives no read counts; variants with many changes may rest on few reads.

To fix the notation:
B1: LINE1-mini (parent)
chain: GGCAGAGCUCAACACAGCGUGGCAAAGUGGCUGUGGCUAGACUGCC

In the series the parent is B1. Nature of the series: self-cleavage, relative activity (ratio to wild type); higher = more cleavage; in vitro, sequencing; the parent is a self-cleaving ribozyme.
As for GGCAGAGCUCAAAACAGCGUGGCAAUGCGGCUCUGGCUAGAUUGCC [C13A A26U U28C G33C C42U], the self-cleavage was determined as 0.03.

In the case of GGCAGAGCUCAACACAGAGUUGCAAAGUGGCUGUGGCUAGACUGUC [C18A G21U C45U], the self-cleavage came out at 0.38.

Take GGCAGAGCUCAAAACAGCUUGGCAAAGCGGCUGUGGCUAGACUGCC [C13A G19U U28C]: the self-cleavage came to 0.09. As to GGCAGAGCUCAACACAGCGGGGAAAAGUGGCUGUGGCUAGCCUCCC [U20G C23A A41C G44C], the self-cleavage amounted to 0.05.

Consider GGAAGAGCUCAUCACAGCGUGGCAACGUGGCGGUGGCUAGACUGCC [C3A A12U A26C U32G], for which the self-cleavage was 0.09. Regarding GGCAGAGCUUAACACAGUGUGGCUAAUUGGCUGUGGCUAGACUGCC [C10U C18U A24U G27U], the self-cleavage is 0.16.

As to GGCAGAGCUCACCACAGCGUGGCAAAGUAGCUGUGGCUAGACUGCU [A12C G29A C46U], the self-cleavage was 0.01.

GGCAGUGCUCAACAUAGCCUGGCAAUGUGGCUGUGGCUAGACUGCC [A6U C15U G19C A26U]: the self-cleavage was found to be 0.3.

For GGCAGAGGUCAACACAGCGUGGCAAAGUGGCUGUGGCUUGACUGCA [C8G A39U C46A], the self-cleavage was determined as 0.01. Take GUCAGAGCUCAACACAGCUUGGCGAGCUGGCUGUGGCUAGAGUGCC [G2U G19U A24G A26G G27C C42G]: the self-cleavage was 0.03. Turning to AGCAGAGCUAAACACAGAGUGGCAAAGUAGCUGUGGCUAGACUGCC [G1A C10A C18A G29A], the self-cleavage stood at 0.31.

Take GGCAGACCUCAACACAACGUGGCAAAGUGGCUGUGGCUAGAUUGCC [G7C G17A C42U]: the self-cleavage was determined as 0.03. Regarding GGCAGAGCUCAGCACGGUGUGGCAAAGUGGCUGUGGCUAGACUGCC [A12G A16G C18U], the self-cleavage is 0.01. The figure for GGCAGAGCUCGACACAGCGUGGCAAAGUGGCUGUGGUUAGACUGCU [A11G C37U C46U] is 0.01; for GGCGCAGCUCAAUACAGCGUGGCAAAGUGGCUGUUGCGAGACUGCC [A4G G5C C13U G35U U38G] it is 0.8. As for GGCAGAGCACUACACAGCGUCGCAAAGUGGCUGUGGCUAGACUGCC [U9A A11U G21C], the figure is 0.01.

For the variant GGCAGGGCUCAACACAGCGUGGCAAAAUGGCUGCGGCUAGACUGCC [A6G G27A U34C], the self-cleavage stood at 0.08. The figure for AGCAGAACGCAACACAGCGCGGCUAAGUGGCUGUGGCUAGACUGCC [G1A G7A U9G U20C A24U] is 0.05. For the variant GGCCGAGCUCAACACAGCGUGGCAAAGUGGCUGUGGAUAGACUGCA [A4C C37A C46A], the self-cleavage worked out at 0.05. As for GGCAGAGUUCAACACAGCGUGCCAAAGUGGCUGUGGCUAAACUGCC [C8U G22C G40A], the figure is 0.3; as for GGCAGUGCUCAGCACAGCGUGGCAAAGUGGGUGUAGCUAGACUGCC [A6U A12G C31G G35A], 0.03; as for GGAAGAACUCAACACAGCGUGGCCAAAUGGCUGUGGCUAGAGUGUC [C3A G7A A24C G27A C42G C45U], 0.01. Turning to GGCAGAGCUCAACAUAGCGUGGCAAAGUGGCUGUGACUAGACAGCC [C15U G36A U43A], the self-cleavage was 0.05.

As to CGAAGAGCUGAACACAGCGUGGCAAAGAGGCUGUGGCUAGACUGCC [G1C C3A C10G U28A], the self-cleavage stood at 0.01. With GGCAGAGCUCAAUUCAGCGAGGCAAAGUGACUGUGGCUAGAUUGCC [C13U A14U U20A G30A C42U], the self-cleavage turned out to be 0.16. Turning to GGCAGAGCUCAACACAGGUUGGCAAAUUGGCUGUGGCUAGACUGCC [C18G G19U G27U], the self-cleavage came to 0.1.

For the variant GGGAGAGCACAACACAGCGUGACAAAGUGGCUGUGGCUAGACUGCC [C3G U9A G22A], the self-cleavage came to 0.25. The figure for GACAGAGCUCAACACAGCGUGGCAAAGUGGCUAUGGCUAGACCGCC [G2A G33A U43C] is 0.21.

In the case of GGCAGAGCUCAUAACAUCGUGGCAAAGUGGCUGUGGCUAGACUGCC [A12U C13A G17U], the self-cleavage is 0.2. For the variant CGCAGAGCUCAACACAGCGUGGCAAAGUGGCUGUGGCUAUACUGUC [G1C G40U C45U], the self-cleavage worked out at 0.03. With GGCAGAGUUCAACACAGCGGGGCAAAGUAGCUGUGGCUGGACUGCC [C8U U20G G29A A39G], the self-cleavage is 0.02. As for GGCAGAGCUCAAAGCAGCGAGGCAAAGUGGAUGUGGCUAGACAGCC [C13A A14G U20A C31A U43A], the self-cleavage amounted to 0.03. With GGCAGCGCUCUACACAGCUUGGCAAAGUGGCUGUGGCUAGACUGCC [A6C A11U G19U], the self-cleavage was 0.21. GGCAGAGCUCAACACAGCGUGUCAAAGUGGCUGAGUCUAGCCUGCC [G22U U34A G36U A41C]: the self-cleavage was determined as 0.06. For GGCAGAGCUCAACAAAGCGUGGCAAAGUAGCUGUGGCUAGACGCCC [C15A G29A U43G G44C], the self-cleavage came out at 0.03.

Consider GGCAGAGCUCAACACAGCGUGGCAAAGUAGCUGAAGCUAGACUGCC [G29A U34A G35A], for which the self-cleavage was determined as 0.17. Turning to GGCUAAGAUCAACACAGCGUCGCAAAGUAGCUGUUGCUAGACUGCC [A4U G5A C8A G21C G29A G35U], the self-cleavage was determined as 0.04. In the case of GGGUGCGCUUAACACAGCGGGGCAAAGUGGCUGUGGCUAGACUUCC [C3G A4U A6C C10U U20G G44U], the self-cleavage is 0.02. Consider GGCAGGUCUCAAUACAGCGUGGCAAAGUGGCUGUGGCUAGACUGCC [A6G G7U C13U], for which the self-cleavage was 0.04. For GGCAGAGCUCAACACAGCGUGGCAAAAUGGCUUUGGCUACACUGCC [G27A G33U G40C], the self-cleavage turned out to be 0.02.

Turning to GGCAGAGCUCGAAACAGCGUGGCUAAGUGGCUGUGGCUAGCCUGCC [A11G C13A A24U A41C], the self-cleavage is 0.01. As for GGCAGAGCUCAACACAGCGUGGUAAAGUGGUUGUGUCUAGACUGCA [C23U C31U G36U C46A], the self-cleavage amounted to 0.14.

Regarding GGCAGAGCUCGACACAGCGUGGCAUAGUGGCUGUGACUAGACUGUC [A11G A25U G36A C45U], the self-cleavage is 0. GGCAGAGCUGAACACAGCGCGGCAAAGUGGCUGUGGAUAGAUUCCC [C10G U20C C37A C42U G44C]: the self-cleavage was determined as 0. As for GGUAGAGCUCAACACAGCGUGGCAAAGUGGCUGUGACUAGACGGCC [C3U G36A U43G], the self-cleavage is 0.1. In the case of UGCAGAGCUCAACACAGCGUGGCAUAGUGGCUGUGGCUAGACUGGC [G1U A25U C45G], the self-cleavage was 0.4. With GGCAGAGCUCAACACACCCUGGCAAACUGGCUGUGGCUAGACUGCU [G17C G19C G27C C46U], the self-cleavage worked out at 0.17. In the case of GGCAGAGCUCCACAGAGCGUGGCAAGGUGGCUGUGGCUAGACUGCC [A11C C15G A26G], the self-cleavage worked out at 0.01.

In the case of GGCACAGCUCAACCCAGUGUGGGAAAGUGGCUGUGGCUAGACUGCC [G5C A14C C18U C23G], the self-cleavage came out at 0.01. For GGCAGAGAUCAACACAGUGUGGCAAAGUUGCUGUGGCUAGACUGCU [C8A C18U G29U C46U], the self-cleavage is 0.1. Consider GGCAGAGCUCUACACAGCGUGGCAAAAUGGCUGUGGUUAGACUGCC [A11U G27A C37U], for which the self-cleavage turned out to be 0.01. Take GGCAGAGCUCAACGCAGCGUGGAAAAGUGGCUGUAGCUAGGCUGCC [A14G C23A G35A A41G]: the self-cleavage amounted to 0.04.

With GCCAGAGCUCAAAACAGCGUGGCUAAGUGGCUGUUGCUAGACUGCC [G2C C13A A24U G35U], the self-cleavage is 0.1.

Consider GUCAGUACUCAACACAGCGUGGCAAAGUUGCUGUGGCUAGACUGCC [G2U A6U G7A G29U], for which the self-cleavage turned out to be 0.03. The figure for GGCAGAGCUCAACACAGCGCGGCAAAGUGGCUGUGGUUCGAGUGCC [U20C C37U A39C C42G] is 0.01; for GGCAGAGCUCAACACAGUGUGGCAAAGUGCCUGUUGCUAGACUGCC [C18U G30C G35U] it is 0.04.
